Measurements: PubChem BioAssay AID2202238 (Ras Initiative Chemistry Research Team, Frederick National …, 2025)
This is one part of the list. These are further read-outs of the screen, such as a control signal, another cell line or another target. No call is given for them.

Target: GTPase KRas (Homo sapiens) (UniProt P01116)
Test: Cysteine mutants labelled by reactive fragments (mass read-out) (AID 2202238)
Set-up: protein at 5 µM with 500 µM competing thiol for 1.5 h
Details: KRAS G12D cysteine mutants, disulfide tethering, MALDI-TOF labeling, stronger effect = higher value, fragment at 500 µM
[1] = measured here: G60C mutant labeling
[2] = measured here: G75C mutant labeling
[3] = measured here: H94C mutant labeling
[4] = measured here: I36C mutant labeling
[5] = measured here: L120C mutant labeling
[6] = measured here: M67C mutant labeling
[7] = measured here: M72C mutant labeling
[8] = measured here: N26C mutant labeling
[9] = measured here: N86C mutant labeling
[10] = measured here: P121C mutant labeling
[11] = measured here: S122C mutant labeling
[12] = measured here: S136C mutant labeling

Sequence of UniProt P01116 (P01116 whole entry, looked up, the tested form may be a part): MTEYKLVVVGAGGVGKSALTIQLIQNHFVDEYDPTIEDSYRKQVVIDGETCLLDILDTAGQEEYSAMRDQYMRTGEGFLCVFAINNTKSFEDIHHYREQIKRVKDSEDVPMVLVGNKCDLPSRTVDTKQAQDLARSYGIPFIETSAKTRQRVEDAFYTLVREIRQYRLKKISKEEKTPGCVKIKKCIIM

SMILES | percent labeling [1] [%] | percent labeling [2] [%] | percent labeling [3] [%] | percent labeling [4] [%] | percent labeling [5] [%] | percent labeling [6] [%] | percent labeling [7] [%] | percent labeling [8] [%] | percent labeling [9] [%] | percent labeling [10] [%] | percent labeling [11] [%] | percent labeling [12] [%]
CC(C)c1cc(C(=O)NCCS)nn1-c1ccccc1 | 22.4 | 9.1 | 16 | 10.8 | 21.5 | 14.8 | 22.8 | 24.5 | 9 | 14.8 | 12.2 | 30.7
O=C(NCCS)c1cccc(C(F)(F)F)c1 | 54.1 | 21.3 | 39.8 | 19.1 | 21 | 17.6 | 54.2 | 28.5 | 15.1 | 22.9 | 15.6 | 35.4
O=C(CCS)N1CCC(Sc2cccc(Cl)c2)C1 (centres undefined) |  | 17.1 | 30.3 | 24.1 | 24.3 | 30.8 | 35 |  | 18.4 | 24.1 | 14 | 38.5
O=C(NCCS)c1ccccc1-n1cc(Br)cn1 | 49.2 | 19.8 | 35 | 24 | 30.4 | 32.7 | 35.9 | 39.2 | 23.3 | 24.5 | 21.1 | 33.7
COc1cccc(CCN(CC(F)F)C(=O)CCS)c1 |  | 11 | 35.4 | 29.9 | 20.7 | 33.5 | 39.4 |  | 24.4 | 25 | 26 | 51.1
CCn1cc(-c2[nH]ncc2C(=O)NCCS)cn1 | 24.7 | 18.6 | 34.4 | 29.8 | 35.5 | 38 | 34 | 48.1 | 28.1 | 35.1 | 35.3 | 49.7
CN(CCNC(=O)CCS)c1ccccn1 |  | 18.6 | 30.9 | 29.5 | 21.7 | 31.5 | 19.3 |  | 20.1 | 28.8 | 29.2 | 44.9
O=C(CCS)Nc1cc2c3c(c1)CCC(=O)N3CCC2 |  | 8.5 | 23.1 | 20.5 | 14.4 | 21.7 | 58.7 |  | 5 | 13.7 | 17.2 | 33.6
Cc1nn(-c2ccccc2)c2sc(C(=O)NCCS)cc12 | 35.4 | 18.6 | 21.1 | 25.7 | 20.4 | 9.4 | 76.1 | 34.7 | 13 | 16.5 | 6.9 | 28.8
O=C(NCCS)C1(C(F)(F)F)CCN(Cc2ccccc2)C1 (centres undefined) | 35.7 | 24.1 | 25 | 15.7 | 16.4 | 28.1 | 41.4 | 32.3 | 26.3 | 16.2 | 13.2 | 28.7
Cc1cccc(C(CC(=O)NCCS)NC(N)=O)c1 (centres undefined) | 43.2 | 15.3 | 31.9 | 30.6 | 44.9 | 35.7 | 29.1 | 38.1 | 27.3 | 37.3 | 34.1 | 43.4
O=C(NCCS)c1ccc2noc(-c3ccc(F)cc3)c2c1 | 14.2 | 4.6 | 10.2 | 7.8 | 7.3 | 8.6 | 20.1 | 26.3 | 10.1 | 15.6 | 3.1 | 9.6
Cc1nc2ccccc2c(C)c1CC(=O)NCCS | 29.3 | 4.9 | 22.4 | 18.6 | 36.2 | 23.3 | 16.3 | 27.7 | 16.8 | 19.1 | 13.5 | 38.4
Cn1cc(C(=O)NCCS)c2ccccc2c1=O | 43.9 | 20.9 | 36 | 26.8 | 36.9 | 31.7 | 51.7 | 48.1 | 22.9 | 30.2 | 28.5 | 51.7
O=C(CCS)NCCn1cncc1-c1ccccc1 |  | 14.1 | 29.3 | 37.1 | 42.3 | 39.8 | 31.7 |  | 13.8 | 36.5 | 32.6 | 61.3
CN(C)CCNS(=O)(=O)c1cccc(NC(=O)CCS)c1 |  | 21 | 46 | 52.8 | 42.3 | 45.6 | 42.8 |  | 70.1 | 28.7 | 36.6 | 52
Cc1ccn2c(CN3CCN(C(=O)CCS)CC3)c(C)nc2c1 |  | 12.9 | 24.5 | 27.9 | 24.8 | 36.3 | 19 |  | 16.9 | 22.4 | 23.1 | 45.9
O=C(CCS)N1CCN(Cc2noc(C3CC3)n2)CC1 |  | 9.2 | 29.7 | 37.4 | 28.8 | 39.6 | 22.8 |  | 29 | 36.5 | 36.3 | 53.4
O=C(NCCS)C1(C2CCCCO2)CCCO1 (centres undefined) | 23.4 | 9.4 | 26.6 | 18.3 | 28.4 | 24 | 13 | 29.7 | 21.2 | 26.1 | 29.1 | 39.7
Cc1ccc(-n2ccc(CNC(=O)CCS)n2)cc1 |  | 10.5 | 29.5 | 24.4 | 27.3 | 23.4 | 36.3 |  | 11 | 19.9 | 21.5 | 34.5
COc1ccccc1C1(C)CC1C(=O)NCCS (centres undefined) | 52 | 20.1 | 35 | 21.8 | 23.6 | 17.4 | 35 | 30.4 | 24.2 | 25.1 | 9.8 | 33.5
O=C(CCS)N1CCc2cc(Br)c(Cl)cc21 |  | 31.2 | 43.1 | 24.5 | 11.8 | 20.5 | 55.1 |  | 24.7 | 15.2 | 5.8 | 32.2
O=C(CCS)NCCN1C(=O)Cc2ccccc21 |  | 7.6 | 18.8 | 24.1 | 23.2 | 21.8 | 13.9 |  | 10.9 | 22.9 | 22.6 | 40
O=C(NCCS)c1ccc(C2CCCOC2)cc1 (centres undefined) | 23.6 | 13.9 | 18.9 | 12.8 | 19.2 | 16.3 | 47.9 | 33.2 | 17.3 | 11.9 | 9.4 | 21.1

SMILES | percent labeling [1] [%] | percent labeling [2] [%] | percent labeling [3] [%] | percent labeling [4] [%] | percent labeling [5] [%] | percent labeling [6] [%] | percent labeling [7] [%] | percent labeling [8] [%] | percent labeling [9] [%] | percent labeling [10] [%] | percent labeling [11] [%] | percent labeling [12] [%]
Cc1ccc(Cl)c2sc(NC(=O)CCS)nc12 |  | 58.2 | 24.6 | 21.7 | 24.8 | 16.3 | 59.9 |  | 32.5 | 17.7 | 12.8 | 30.4
CCc1[nH]c(-c2ccccc2)cc1C(=O)NCCS | 17.4 | 9.3 | 10.5 | 8.6 | 12.9 | 8.9 | 26.5 | 38 | 6.8 | 22.7 | 8.6 | 17.7
O=C(CCS)NCc1cn(CC(=O)Nc2cc(F)cc(F)c2)nn1 |  | 10 | 15.3 | 24.8 | 15 | 26.4 | 20 |  | 8.3 | 14.4 | 14.3 | 26.7
CC(C)COc1ncc(CNC(=O)CCS)cc1Cl |  | 10.5 | 20.6 | 23.6 | 15.9 | 21.7 | 48.1 |  | 20.2 | 17.1 | 13.9 | 30.7
CCC1CCc2sc(C(=O)NCCS)cc2C1 (centres undefined) | 18.4 | 10.6 | 10.4 | 7.9 | 13.2 | 8.6 | 30.6 | 18.3 | 10.2 | 11.7 | 10.9 | 18.3
O=C(CCS)N1CCC(n2cc3ccccc3n2)C1 (centres undefined) |  | 16 | 30.4 | 37.3 | 35.9 | 50.9 | 34.1 |  | 28.3 | 38.4 | 28.3 | 56.5
O=C(CCS)N1CC(O)CC1c1cc(F)ccc1F (centres undefined) |  | 17.3 | 39.4 | 39.3 | 34.3 | 42.3 | 36.9 |  | 46.2 | 38.4 | 38.8 | 61.5
CC1(NC(=O)CCS)CCOC12CC2(F)F (centres undefined) |  | 13.4 | 26 | 23 | 19.2 | 23.8 | 18.7 |  | 24 | 36 | 32.6 | 39.7
O=C(NCCS)C(c1ccc(Br)cc1)N1CCCC1 (centres undefined) | 51.1 | 23 | 29.5 | 21.9 | 66.2 | 28.8 | 22.2 | 39.1 | 13.4 | 18.2 | 11.8 | 27.7
Cc1ccc(CN(C)c2ccc(C(=O)NCCS)cc2)cc1 | 25.6 | 12.5 | 15.3 | 9 | 12 | 10.5 | 42.2 | 26.6 | 13.7 | 10.7 | 8.3 | 14
Cc1nc(C)n(CC2CCCN(C(=O)CCS)C2)n1 (centres undefined) |  | 9.4 | 33.8 | 34.9 | 31.1 | 38.8 | 12.8 |  | 21.7 | 29.8 | 31.2 | 57.8
O=C(CCS)Nc1ccc(Cl)nc1OCc1ccccc1 |  | 13.1 | 15.3 | 26.9 | 7.5 | 25.7 | 57.4 |  | 22 | 12.6 | 7.6 | 19.9
O=C(NCCS)c1ccc(Cl)c2occc12 | 50.7 | 10.9 | 12.4 | 13.5 | 9.9 | 7.6 | 28.7 | 24.7 | 4.6 | 36.3 | 8 | 19
Cc1nn(C)c(N2CCOCC2)c1CNC(=O)CCS |  | 8.8 | 29.8 | 39.7 | 27.5 | 43 | 13.1 |  | 20 | 33.3 | 31.6 | 47.7
O=C(CCS)NC1(c2nc(-c3ccsc3)no2)CCCCC1 |  | 6.5 | 18.3 | 18 | 17.3 | 39.3 | 34.6 |  | 18 | 15.4 | 11.4 | 35.3
O=C(Cn1nccc1-c1ccccc1)NCCS | 46.4 | 18.6 | 33.9 | 27.5 | 48.3 | 50.6 | 35.3 | 37.2 | 26.9 | 35.9 | 32.8 | 55.2
Cc1cc(Oc2ccccc2C#N)ncc1NC(=O)CCS |  | 14 | 25.1 | 32.1 | 22 | 37 | 35 |  | 15.2 | 20.9 | 23.7 | 37.7
Cc1cc(C)nc(-n2cc(C(=O)NCCS)c(C)n2)n1 | 38.9 | 14.2 | 30.5 | 30.2 | 34.2 | 29.2 | 38.9 | 40.6 | 27.2 | 35.9 | 35.6 | 51.5
COC(=O)C1(C2(O)CCN(C(=O)CCS)CC2)CCC1 |  | 10.8 | 41.8 | 35.7 | 37.8 | 40 | 25.4 |  | 20.3 | 35.5 | 37.3 | 66.8
NC(=O)N1CCc2cc(NC(=O)CCS)ccc21 |  | 12.7 | 23.3 | 27.3 | 25.8 | 24 | 31.1 |  | 13.2 | 25.1 | 29.9 | 42.4
Cc1cc(NC(=O)CCS)cnc1N1CCCCC1C (centres undefined) |  | 15.6 | 17.7 | 20.3 | 18.6 | 18.1 | 34 |  | 17.5 | 13.4 | 14.3 | 35.9
Cn1ncc2nc(C(F)(F)F)c(C(=O)NCCS)cc21 | 67.3 | 23.8 | 36.2 | 32.7 | 32.9 | 38.5 | 45.8 | 46.1 | 37.7 | 32.4 | 29.4 | 51
O=C(NCCS)c1cc2c(Br)c(F)ccc2[nH]1 | 17 | 15.7 | 12.8 | 12.6 | 10.4 | 9 | 18.6 | 29.3 | 15.3 | 9.9 | 6.7 | 9.5
